Results reported in paper PMC4336329 (PLoS ONE, 2015).
In all, about 310,000 compounds went through this assay and about 2,200 (0.71%) showed an effect of 50% or more. The effect is printed as a negative number. The list shows a part of the results.

Each molecule was assayed against human ether-à-go-go-related gene (hERG) potassium channel (human, UniProt Q12809) (assay: primary screen, population patch clamp on CHO cells stably expressing hERG).
Sequence of human ether-à-go-go-related gene (hERG) potassium channel (Q12809 whole entry, looked up): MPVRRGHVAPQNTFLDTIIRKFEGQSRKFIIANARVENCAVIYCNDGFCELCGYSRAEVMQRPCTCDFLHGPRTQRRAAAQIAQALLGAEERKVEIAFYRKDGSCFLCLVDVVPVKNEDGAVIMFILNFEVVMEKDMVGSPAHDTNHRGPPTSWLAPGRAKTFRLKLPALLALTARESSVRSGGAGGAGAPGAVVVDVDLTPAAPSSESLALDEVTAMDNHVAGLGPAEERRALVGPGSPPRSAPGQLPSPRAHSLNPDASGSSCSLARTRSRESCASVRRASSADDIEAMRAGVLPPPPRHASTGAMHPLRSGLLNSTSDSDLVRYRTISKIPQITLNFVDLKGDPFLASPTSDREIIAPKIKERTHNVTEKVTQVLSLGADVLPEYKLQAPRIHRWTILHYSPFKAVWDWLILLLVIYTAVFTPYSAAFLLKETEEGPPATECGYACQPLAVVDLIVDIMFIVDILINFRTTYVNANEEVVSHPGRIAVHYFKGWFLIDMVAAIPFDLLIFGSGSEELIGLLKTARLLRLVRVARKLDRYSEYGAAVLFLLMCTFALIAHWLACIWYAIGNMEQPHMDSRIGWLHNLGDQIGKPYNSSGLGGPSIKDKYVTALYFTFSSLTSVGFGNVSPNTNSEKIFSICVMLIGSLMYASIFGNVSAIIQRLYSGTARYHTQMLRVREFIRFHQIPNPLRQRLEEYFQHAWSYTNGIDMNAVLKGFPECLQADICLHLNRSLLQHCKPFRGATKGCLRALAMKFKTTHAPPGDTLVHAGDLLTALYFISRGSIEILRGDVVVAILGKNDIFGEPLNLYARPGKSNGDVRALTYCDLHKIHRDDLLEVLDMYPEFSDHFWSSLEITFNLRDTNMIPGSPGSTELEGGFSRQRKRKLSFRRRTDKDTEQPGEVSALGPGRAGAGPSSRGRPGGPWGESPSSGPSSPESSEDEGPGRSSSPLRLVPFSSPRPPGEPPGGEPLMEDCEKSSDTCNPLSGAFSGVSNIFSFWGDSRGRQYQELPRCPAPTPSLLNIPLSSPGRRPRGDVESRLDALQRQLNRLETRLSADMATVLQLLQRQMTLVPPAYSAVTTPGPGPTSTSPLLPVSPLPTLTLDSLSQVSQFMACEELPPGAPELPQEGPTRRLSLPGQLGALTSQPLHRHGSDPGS

Compound	hERG current change (%, negative = inhibition) at 1uM [%]
CCc1nc(NCCC(C)C)c(C#N)c2c1CCCC2	22.5
Cc1c(Cl)cccc1NC(=S)NCC1COc2ccccc2O1 (stereo not drawn)	13.1
COc1ccc(OC)c2sc(NC(=O)C3CC3)nc12	2.09
N#Cc1ccc(C2=CC(=O)C[C@H](c3ccc(Cl)cc3)C2)cc1	-51.9
CCOC(=O)Cn1c(=NC(=O)c2cccs2)sc2cc(C(=O)OC)ccc21	0.0979
Cc1[nH]c2ccccc2c1-c1nc(N)sc1C	16.1
CCOc1ccc(C(=O)NC2CCN(C(=O)N3CCCC3)CC2)cc1	11.4
Cc1ccc(N(CC(=O)N2CCCCCC2)S(C)(=O)=O)cc1Cl	13.7
CCOC(=O)C1CCCN(C(=O)/C=C/c2ccc(Cl)cc2)C1 (stereo not drawn)	-26.1
CCCOc1ccc(CSc2ncn[nH]2)cc1	-1.78
O=C(c1cccc(NS(=O)(=O)c2cccc(F)c2)c1)N1CCN(c2ccccc2)CC1	6.34
COc1ccc(S(=O)(=O)NN(C)C(=O)c2nn(-c3ccccc3)ccc2=O)cc1	-9.21
COc1ccccc1-n1nnnc1SCc1ccccc1	2.91
C1CCN(c2nc3nonc3nc2N2CCCCC2)CC1	-1.13
COC(=O)C1=C(C(=O)OC)[C@@H]2N(C)c3ccccc3[C@@]23C[C@@H](C(=O)OC)N(C(C)=O)C3=N1	7.59
COC(=O)c1ccc(OC(=O)CCc2cc(OC)c(OC)c(OC)c2)cc1	7.71
Cc1c(C2(O)C(=O)Nc3ccc(F)cc32)c(=O)n(-c2ccccc2)n1C (stereo not drawn)	5.04
O=c1[nH]c(C2CCN(S(=O)(=O)c3ccc([N+](=O)[O-])cc3)CC2)nc2c1nnn2Cc1ccccc1	15.8
O=C(CCNC(=O)c1ccco1)Nc1ccc(N2CCOCC2)cc1	11.3
COc1cc(/C=C/C(=O)C2C(=O)C=C(C)OC2=O)cc(OC)c1O (stereo not drawn)	13.5
CC(=O)Nc1ccc(S(=O)(=O)NC2(C(F)(F)F)C(=O)Nc3c2c(=O)[nH]c(=O)n3C)cc1 (stereo not drawn)	4.78

Compound	hERG current change (%, negative = inhibition) at 1uM [%]
O=C(COc1ccc(Cl)cc1)Nc1cccc(S(=O)(=O)NCc2ccco2)c1	5.13
COCCCNc1nc2ccccc2nc1NS(=O)(=O)c1ccc(C)c(C)c1	-1.92
COc1cc(/C=N/NS(=O)(=O)c2ccc(C(C)(C)C)cc2)cc([N+](=O)[O-])c1O	13.6
CCCCN(C)C(=O)c1nc2ccccn2c1CN(C)Cc1csc(C)n1	11.5
O=C(C1CCCN(S(=O)(=O)c2ccc(Br)s2)C1)N1CCN(c2ccccc2)CC1 (stereo not drawn)	-24.3
C[C@@H](O)C1NC(=O)[C@H](CCCCN)NC(=O)c2cc([N+](=O)[O-])cc(F)c2NCCCC[C@@H](C(N)=O)NC1=O (stereo partly drawn)	10.8
NC(=O)c1sc2nc(-c3cccnc3)ccc2c1N	15.8
COc1cc(C(=O)Nc2nc3ccc4nc(C)sc4c3s2)cc(OC)c1OC	4.84
COc1ccc(NS(=O)(=O)c2ccc(C)c(C(=O)NCC(c3ccco3)N3CCCCC3)c2)cc1 (stereo not drawn)	8.71
Cc1cccc(N2C(=O)NC(=O)/C(=C\c3ccc4c(c3)CCCN4Cc3ccccc3)C2=O)c1	12.3
CCn1c(=O)n(CC)c2cc(NC(=O)C(C)c3ccccc3)c(Br)cc21 (stereo not drawn)	15.2
Cc1ccc(NC(=O)C2CCCN(S(=O)(=O)c3c(C)noc3/C=C/N(C)C)C2)cc1F (stereo not drawn)	2.13
OCC1(c2cc(C(F)(F)F)n[nH]2)CCCCC1	4.63
Cc1cc(C(=O)N2CCN(c3ncccn3)CC2)sc1-c1ccccc1	1.2
Cc1ccc(C2Nc3cccc4cccc(c34)N2)cc1	7.8
CC(NC(=O)C12CC3CC(CC(C3)C1)C2)C(=O)N/N=C/C1=C(N2CCOCC2)C(=C\c2cccc([N+](=O)[O-])c2)/CC1 (stereo not drawn)	7.96
CCN(CC)C(=O)CSc1nc2ccc(NC(=O)CSc3nnc(COc4ccccc4C)n3C)cc2s1	-5.55
CCn1nc(C)c(/C=N\NC(=O)c2ccc3c(c2)OCO3)c1C	12.1
COc1cccc(N(CC(=O)Nc2cccnc2)S(C)(=O)=O)c1	16.1
CCSc1nc2sc3c(c2c(=O)n1CC)CC(C)(C)OC3	10.1
C/C=C/C=C/C(=O)N1CC2(CC(c3cccc(NC(=O)CCCCC)c3)=NO2)C[C@H]1C(N)=O (stereo partly drawn)	7.79
